koff data for one molecule are collected here from paper PMC8329185 (2021).

For the experiment, the target named is T1, GST-TrnSR-D750R/D751R (without mCherry) (human, UniProt Q9Y5L0 1-923, D750R | D751R).
T1 sequence: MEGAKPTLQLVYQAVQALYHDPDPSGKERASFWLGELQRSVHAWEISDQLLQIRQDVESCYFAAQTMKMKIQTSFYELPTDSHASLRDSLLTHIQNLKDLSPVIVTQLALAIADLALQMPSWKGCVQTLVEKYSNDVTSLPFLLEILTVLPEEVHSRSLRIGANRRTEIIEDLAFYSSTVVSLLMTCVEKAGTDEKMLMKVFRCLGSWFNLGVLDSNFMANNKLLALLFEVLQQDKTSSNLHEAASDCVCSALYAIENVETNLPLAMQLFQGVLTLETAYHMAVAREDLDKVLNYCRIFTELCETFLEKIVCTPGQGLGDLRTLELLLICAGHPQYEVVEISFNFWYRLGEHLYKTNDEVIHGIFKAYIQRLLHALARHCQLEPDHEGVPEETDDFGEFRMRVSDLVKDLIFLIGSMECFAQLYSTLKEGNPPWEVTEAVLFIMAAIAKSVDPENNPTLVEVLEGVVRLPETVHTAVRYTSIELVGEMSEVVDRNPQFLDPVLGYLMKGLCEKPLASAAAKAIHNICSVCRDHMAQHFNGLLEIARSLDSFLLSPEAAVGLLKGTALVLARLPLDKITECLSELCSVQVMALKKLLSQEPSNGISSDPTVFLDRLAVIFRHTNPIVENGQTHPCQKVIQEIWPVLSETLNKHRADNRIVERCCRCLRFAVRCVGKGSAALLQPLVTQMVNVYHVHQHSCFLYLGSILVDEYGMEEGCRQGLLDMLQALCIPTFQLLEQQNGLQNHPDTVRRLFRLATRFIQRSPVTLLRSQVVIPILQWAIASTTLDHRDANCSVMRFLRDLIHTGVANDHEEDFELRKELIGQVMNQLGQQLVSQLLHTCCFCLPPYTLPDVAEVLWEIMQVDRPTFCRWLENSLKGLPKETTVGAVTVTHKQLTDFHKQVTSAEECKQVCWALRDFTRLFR
Kind of experiment: SPR.

B1: His6-DNAJB1 (natural protein)
chain: MGKDYYQTLGLARGASDEEIKRAYRRQALRYHPDKNKEPGAEEKFKEIAEAYDVLSDPRKREIFDRYGEEGLKGSGPSGGSGGGANGTSFSYTFHGDPHAMFAEFFGGRNPFDTFFGQRNGEEGMDIDDPFSGFPMGMGGFTNVNFGRSRSAQEPARKKQ[about 150 residues not printed]PERIPQTSRTVLEQVLPI
In turn, B1 registered a koff of 0.00039 s⁻¹.

The koff is the rate constant with which the complex falls apart. Read a low koff as slow dissociation.
